Consider 3 molecules from publication PMC7442955, “Biochemical and functional characterization of a meiosis-specific Pch2/ORC AAA+ assembly” (Life Science Alliance, 2020).

Residue numbers refer to the chain shown, from its start. In names and notes the source's numbering stands. These are yes or no findings as the source states them, for the method shown. For some assays here: Binding seen in cells or lysates may run through a third protein. Some entries that bind do so weakly or less than the wild type. Sequences can lack the tags named with a protein.

The target of assay [1] is T1, Orc3 (yeast two-hybrid fusion) (budding yeast) (UniProt P54790).
T1 sequence: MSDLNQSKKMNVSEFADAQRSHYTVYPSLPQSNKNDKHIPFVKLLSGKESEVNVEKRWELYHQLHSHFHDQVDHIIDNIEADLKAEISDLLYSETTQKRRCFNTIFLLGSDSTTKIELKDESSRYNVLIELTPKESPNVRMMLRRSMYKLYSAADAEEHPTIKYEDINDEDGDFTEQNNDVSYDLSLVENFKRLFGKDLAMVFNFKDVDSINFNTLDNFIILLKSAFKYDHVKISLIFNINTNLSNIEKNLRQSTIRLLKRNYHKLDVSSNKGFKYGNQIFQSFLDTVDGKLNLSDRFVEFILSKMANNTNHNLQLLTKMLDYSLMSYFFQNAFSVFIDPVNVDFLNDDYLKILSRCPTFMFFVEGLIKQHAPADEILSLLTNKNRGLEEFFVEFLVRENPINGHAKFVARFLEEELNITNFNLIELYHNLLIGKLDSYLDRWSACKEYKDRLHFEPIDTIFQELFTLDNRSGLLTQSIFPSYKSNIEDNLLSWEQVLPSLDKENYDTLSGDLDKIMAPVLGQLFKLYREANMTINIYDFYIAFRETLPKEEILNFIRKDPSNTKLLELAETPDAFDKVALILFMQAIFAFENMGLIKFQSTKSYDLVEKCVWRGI
Kind of assay: two-hybrid; bait and prey in pGBDU-C1 or pGAD-C1, reporter strain yGV864; spot assay on -Ura-Leu-His plates, 2–4 d.

Assay [2] concerns the target T2, Orc1 (yeast two-hybrid fusion) (budding yeast) (UniProt P54784).
T2 sequence: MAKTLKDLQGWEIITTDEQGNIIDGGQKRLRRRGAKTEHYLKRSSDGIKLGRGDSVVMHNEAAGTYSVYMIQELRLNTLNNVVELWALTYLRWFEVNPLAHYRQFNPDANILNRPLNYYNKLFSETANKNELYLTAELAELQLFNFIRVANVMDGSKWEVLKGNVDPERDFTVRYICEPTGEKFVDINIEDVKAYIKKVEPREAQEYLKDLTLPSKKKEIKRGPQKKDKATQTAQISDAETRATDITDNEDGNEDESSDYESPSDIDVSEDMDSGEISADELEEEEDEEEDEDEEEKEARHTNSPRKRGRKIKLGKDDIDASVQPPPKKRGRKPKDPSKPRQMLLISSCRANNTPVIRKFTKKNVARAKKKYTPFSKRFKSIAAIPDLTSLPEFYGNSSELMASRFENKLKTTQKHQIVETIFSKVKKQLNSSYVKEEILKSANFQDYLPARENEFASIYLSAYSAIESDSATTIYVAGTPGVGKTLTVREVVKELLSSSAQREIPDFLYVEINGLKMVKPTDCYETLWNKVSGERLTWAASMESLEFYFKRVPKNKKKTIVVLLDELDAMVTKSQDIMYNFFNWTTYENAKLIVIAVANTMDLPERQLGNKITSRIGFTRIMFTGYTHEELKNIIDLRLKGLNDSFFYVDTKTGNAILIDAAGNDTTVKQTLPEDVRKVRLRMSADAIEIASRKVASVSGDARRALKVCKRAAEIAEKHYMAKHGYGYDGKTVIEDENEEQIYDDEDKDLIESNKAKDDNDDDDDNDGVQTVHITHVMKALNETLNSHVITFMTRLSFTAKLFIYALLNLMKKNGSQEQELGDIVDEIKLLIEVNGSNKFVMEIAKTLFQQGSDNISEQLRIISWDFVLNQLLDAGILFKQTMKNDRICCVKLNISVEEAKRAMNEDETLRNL
The assay is described as above.

Assay [3] addresses T3, Orc4 (yeast two-hybrid fusion) (budding yeast) (UniProt P54791).
T3 sequence: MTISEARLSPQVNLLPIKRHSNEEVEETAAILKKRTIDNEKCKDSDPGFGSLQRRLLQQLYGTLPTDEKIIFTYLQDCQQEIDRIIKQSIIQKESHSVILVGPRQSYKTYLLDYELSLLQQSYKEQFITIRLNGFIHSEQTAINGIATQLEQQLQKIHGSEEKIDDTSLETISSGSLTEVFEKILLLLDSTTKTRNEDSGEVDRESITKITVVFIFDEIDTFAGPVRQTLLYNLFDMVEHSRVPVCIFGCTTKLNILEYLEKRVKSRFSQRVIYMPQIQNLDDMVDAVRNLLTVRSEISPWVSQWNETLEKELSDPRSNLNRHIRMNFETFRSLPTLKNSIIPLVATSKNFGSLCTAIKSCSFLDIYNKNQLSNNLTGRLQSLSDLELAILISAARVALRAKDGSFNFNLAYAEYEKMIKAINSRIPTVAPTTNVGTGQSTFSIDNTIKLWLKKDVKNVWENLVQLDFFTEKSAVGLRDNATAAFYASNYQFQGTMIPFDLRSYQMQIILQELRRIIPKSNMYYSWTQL
Described as above.

The target in assay [4] is T4, Orc2 (precipitated with α-Orc2) (budding yeast (endogenous in SK1 meiotic cells)) (UniProt P32833).
T4 sequence: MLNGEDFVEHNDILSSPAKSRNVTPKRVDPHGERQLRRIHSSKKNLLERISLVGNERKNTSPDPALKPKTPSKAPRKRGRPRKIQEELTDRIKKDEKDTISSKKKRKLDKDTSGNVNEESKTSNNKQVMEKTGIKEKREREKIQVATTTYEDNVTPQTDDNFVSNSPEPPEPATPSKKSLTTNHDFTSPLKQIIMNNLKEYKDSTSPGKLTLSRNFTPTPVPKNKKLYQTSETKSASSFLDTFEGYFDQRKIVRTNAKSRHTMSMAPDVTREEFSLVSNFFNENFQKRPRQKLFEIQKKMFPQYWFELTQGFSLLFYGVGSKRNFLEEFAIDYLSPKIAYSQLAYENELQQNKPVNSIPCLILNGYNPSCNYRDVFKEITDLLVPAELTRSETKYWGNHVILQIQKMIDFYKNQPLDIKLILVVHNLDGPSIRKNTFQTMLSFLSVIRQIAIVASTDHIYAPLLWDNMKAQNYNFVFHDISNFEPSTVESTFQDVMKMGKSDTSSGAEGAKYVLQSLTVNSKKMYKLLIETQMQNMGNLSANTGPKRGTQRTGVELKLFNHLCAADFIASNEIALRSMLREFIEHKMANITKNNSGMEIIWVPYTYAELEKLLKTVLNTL
Description: co-IP; α-Orc2 IP (isotype IgG IP as negative control) from precleared lysates of meiotic cells; Dynabeads protein G.

Assay [5] deals with His–MBP–Pch2-2-144 (budding yeast) (UniProt P38126). Description: SEC; single purified proteins: His–MBP–Pch2 (2 μM), His–MBP–Pch2-243-564 (2 μM), His–MBP–Pch2-2-144 (6 μM; Superdex 200 5/150 GL); 30 mM HEPES pH 7.5, 150 mM NaCl, 3% glycerol, 2 mM TCEP, 1 mM MgCl2; both purified. A general note: Size exclusion chromatography separates by hydrodynamic size, large species first.

B1: Pch2, full-length (yeast two-hybrid fusion) (protein, UniProt P38126 1-564)
chain: MSYIVDLQVRGSSLRVIKCMFREDEQISSLHSGSDSKQNSNKKLGEFLNLLKAVVKRKLESFPKDRLKTSIITGQELMREGQGSIEIKDPPTEAQQHLIRSLAKVLLHQFSSINGKVNTVNEGQDNLFLSLFVKKISIEQQSTSHVSIKLNFHEKINLGQHIDSILDSEETNESDTYHMGSVDEFIIYPFCCLEEQDELKNGSILSTEFDKIDLELDEDDGFEGETLNNCINSVGNFDIPLSKQTLNLVNISYLPGTTFEGQWESLYFGNNIKERLYSYATISLKIARFKQTGDSNQEDITTLITNNKLLLVHGPPGTGKTTLCKALCQKLSVRREFSDGSDTIDTNYKGIIIELSCARIFSKWFGESSKNISIVFKDIEELLKVNEGRGIFICLLIDEVEAIASSRTNLSSRNESTDGIRVVNTLLTQLDRLKKYHNFLALATSNLLDSLDDAFVDRADGVFYVGNPTAEGILHILKVCIEEMITSGIILFHARSTGVKFFNKYQDILRKIAIKCSTVDISGRTIRKLPLMCLSEYFRTFPVDDDEFVLALAMSARKLSAARK
Turning to B1, the binding result in assay [1] was “no binding”; in assay [2], “binds”; in assay [3] it was “no binding”.

B2: 3xFlag-tagged Pch2–E399Q (protein, UniProt P38126 1-564)
chain: B1 chain with E399Q
As for B2, the binding entry in assay [4] is listed as “binds”.

B3: His–MBP–Pch2-2-144 (domain or fragment, budding yeast, UniProt P38126 2-144, looked up)
chain: SYIVDLQVRGSSLRVIKCMFREDEQISSLHSGSDSKQNSNKKLGEFLNLLKAVVKRKLESFPKDRLKTSIITGQELMREGQGSIEIKDPPTEAQQHLIRSLAKVLLHQFSSINGKVNTVNEGQDNLFLSLFVKKISIEQQSTS
notes: Pch2, budding yeast, part of the NH2-terminal domain; Monomer by SEC; also called minimal NH2-terminal fragment of Pch2; source: Tnao38 insect cells (baculovirus), purified (TALON, amylose, SEC); not shown: His, N-terminal, kept; MBP, N-terminal, kept
For the molecule B3, the binding result in assay [5] is listed as “no binding (tested: 6 μM)”.
